About 200 (0.44%) of roughly 45,000 compounds were called active. Not shown: some 7% with an inconclusive outcome. The call rests on the fitted dose curve; in most records, active means well fitted activation curve with a large enough effect; inconclusive means small, poorly fitted or top-dose-only effect; inactive means no such curve, though single readings can be large or run the other way. The list shows a part of the results.
Assay: qHTS of TDP-43 Inhibitors: NCGC Sytravon Library Screen; further: 0% is about no effect; nearly all actives have a fitted effect of over 55% in size
Conditions: yeast TDP-43 toxicity rescue, BacTiter-Glo growth, 24 h; series mostly up to 46.1 µM; growth rescue (activation): at the top concentration
Procedure, shortened: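 TDP-43-expressing yeast, pregrown in raffinose, seeded at OD600 0.02 in galactose medium with compound for 24 hr at 30 deg C. Growth read by BacTiter-Glo luminescence, so rescue of toxicity appears as activation.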

SMILES	growth rescue (activation)
O=C1NC(NS(=O)(=O)c2ccc(Cl)cc2)(C(F)(F)F)C(=O)N1Cc1cccnc1 (stereo not drawn)	inactive: 17.1%
Cc1cc(C)nc(N2CCCC(C(=O)Nc3nnc(C(C)(C)C)s3)C2)n1 (stereo not drawn)	inactive: 3.78%
O=C(COc1ccc2ccccc2c1)NNC(=O)c1cccs1	inactive: 3.62%
CCN1CCN(C(=O)c2ccc3c(c2)N(Cc2cc(C)ccc2C)C(=O)c2ccccc2S3(=O)=O)CC1	inactive: 12.2%
CCOC(=O)Nc1ccc(N2CCOCC2)c(S(=O)(=O)N2CCOCC2)c1	inactive: 12.2%
COc1ccc(S(=O)(=O)N2CCC(C(=O)NCc3cccnc3)CC2)cc1OC	inactive: -9.71%
COc1ccc(N2CCN(C(=O)CNC(=O)c3ccccc3Cl)CC2)cc1	inactive: 18.7%
Cc1ccc(Cl)c(OCCCN(C)Cc2ccccc2)c1	inactive: -4.04%
Cc1cccc(N2N=C(C(=O)OCC(=O)c3ccccc3)CCC2=O)c1	inactive: 26.3%
CC1(C(=O)NCC2CC2)CCN1C(=O)C1(c2ccc(Cl)cc2)CC1 (stereo not drawn)	inactive: 29.9%
CCN(CC)S(=O)(=O)c1ccc(C(=O)N2CCN(c3ncccn3)CC2)cc1	inactive: 0.252%
COc1ccc(/C=N/NC(=S)Nc2cc(S(=O)(=O)N3CCOCC3)ccc2N2CCOCC2)cc1O	inactive: 1.02%
Brc1ccc(COn2ccnc2)cc1	inactive: -7.75%
CCSc1nnc2nc3[nH]c4c(C)cccc4c3nn12	inactive: -6.47%
O=C(O)CSc1nnc(-c2cccc(S(=O)(=O)N3CCOCC3)c2)n1-c1cccc(Cl)c1	inactive: -6.87%
Cc1ccc(NS(=O)(=O)c2cc(C(=O)N3CCCC3)ccc2C)cc1C	inactive: 4.16%
COCC1CCN(Cc2cn[nH]c2-c2cc3ccccc3o2)C1 (stereo not drawn)	inactive: -2.89%
Cc1ccc(NC2=NCC(=O)N2C2CCCC2)cc1	inactive: 2.89%
CC(Oc1ccc(Cl)cc1)C(=O)Nc1ccc(S(=O)(=O)Nc2nccs2)cc1 (stereo not drawn)	inactive: -20.8%
COc1ccccc1-c1cnn2c(NC3CCCC3)cc(C)nc12	inactive: -5.44%
c1ccc2c3c([nH]c2c1)CCNC3	inactive: 0.0563%
CN(C(=O)C(C)(C)C)c1ccc(OCC(=O)N2CCc3ccccc3C2)cc1	inactive: 13.3%

SMILES	growth rescue (activation)
O=C(CCNC(=O)c1ccco1)Nc1ccccc1N1CCOCC1	inactive: 3.97%
CCOC(=O)CC1C(=O)NCCN1C(=O)c1cccc(C(F)(F)F)c1 (stereo not drawn)	inactive: 2.78%
CCOc1ccc(NC(=S)NNC(=S)Nc2cccc(C(F)(F)F)c2)cc1	inactive: 19.3%
COP(=O)(CC(=O)c1ccccc1)CC(=O)c1ccccc1	inactive: 10.8%
NS(=O)(=O)c1ccc(NC2=CC(=O)C(=O)c3ccccc32)cc1	inactive: -11.4%
CCC(c1nnc(SCC(=O)Nc2ccc(Cl)cc2C(F)(F)F)n1C1CCCCC1)N(C)C (stereo not drawn)	inactive: -7.98%
O=[N+]([O-])c1ccc(Cl)c(NC(=S)N2CCCC2)c1	inactive: 18.7%
c1ncn(C23CC4CC(CC(C4)C2)C3)n1	inactive: 14.8%
NS(=O)(=O)c1cccc(NC(=O)c2cccc(-c3ccc(O)cc3)c2)c1	inactive: 9.33%
CN(Cc1cnn(C)c1)C(=O)C1CCC(=O)N(Cc2ccc(Cl)cc2)C1 (stereo not drawn)	inactive: 10.9%
CCCn1c(N)c(C(=O)CSc2nnc(-c3c[nH]c4ccccc34)n2C2CC2)c(=O)[nH]c1=O	inactive: 4.33%
CN(Cc1ccccc1)C1=CC(=[N+]2CCCC2)CC(C)(C)C1	inactive: -11.9%
CCC(C)c1ccccc1NC(=O)C(C)N(C)Cc1cccc(OC)c1 (stereo not drawn)	inactive: 9.09%
COc1ccc(Cn2c(=O)[nH]c3cc(C(=O)NCCc4ccc(S(N)(=O)=O)cc4)ccc3c2=O)cc1	inactive: -15.2%
CCCCOC(=O)Nc1nnc(CCOCC)s1	inactive: 17.5%
Cc1ccsc1/C=N/NC(=O)C1C(=O)NCC1c1ccccc1 (stereo not drawn)	inactive: 5.06%
CCCNC(=O)C1(C)CCN(Cc2ccc(OCc3ccccc3)cc2)C1 (stereo not drawn)	inactive: 1.31%
CCn1c2ccccc2c2cc(NC(=O)CNCc3ccccc3OC)ccc21	inactive: 1.39%
COc1ccccc1NC(=O)Nc1cccc(C(=O)O)c1	inactive: 5.63%
CSc1ccccc1NC(=O)COC(=O)/C=C/c1ccco1	inactive: 32.5%
COc1ccccc1/C=C/C(=O)NCc1ccccn1	inactive: 3.93%
COc1ccc(CNC(=O)COC(=O)c2cccn2C)cc1	inactive: -16.9%

SMILES	growth rescue (activation)
O=C(c1ccncc1)N1CCN(S(=O)(=O)c2ccccc2F)CC1	inactive: 2.88%
N#C/C(=C\c1ccccc1)C(=O)N1CCC(C(N)=O)CC1	inactive: -5.77%
O=C(NCc1ccc(F)cc1)c1cnc(Cl)c(Cl)c1	inactive: 23.9%
CCOc1ccccc1N(CC(=O)NC1CCCCC1)C(=O)c1nsc(Cl)c1Cl	inactive: 21.5%
O=C(CCNc1n[nH]c(=O)[nH]c1=O)N/N=C\c1cccc(OCc2ccccc2)c1	inactive: 7.28%
COCCNC(=O)C1(C)CCCN(Cc2c(C)nn(-c3ccccc3)c2C)C1 (stereo not drawn)	inactive: 8.23%
O=C(Nc1cc(Br)ccc1O)c1cc(-c2ccc3c(c2)OCO3)on1	inactive: -9.44%
CN(CCC#N)C(=O)COC(=O)c1nn(-c2ccccc2)c(=O)c2ccccc12	inactive: -11.4%
COc1ccc(NC(=O)c2nc(S(=O)(=O)Cc3ccc(C)cc3)ncc2Cl)cc1	inactive: 3.27%
CCCCn1c(SCC(=O)Nc2ccc(NC(C)=O)cc2)nc2ccccc2c1=O	inactive: 5.04%
COc1ccc(C(C(=O)NC2CCCCC2)N(C(=O)c2snc(C(N)=O)c2N)c2ccccc2OC)cc1 (stereo not drawn)	inactive: 27.5%
Clc1ccc(-c2cnc3n2CCCCC3)cc1	inactive: 11%
COc1ccc(OCC(=O)Nn2c(-c3ccc(C)cc3)nc3ccccc3c2=O)cc1	inactive: 2.16%
Cc1cc(C)nc(SCC(N)=O)n1	inactive: 4.33%
CCOC(=O)C1(CCCc2ccccc2)CCN(Cc2cn(CC)nc2C)CC1	inactive: -5.58%
COc1cccc(C2=NOC(C(=O)Nc3cccnc3Cl)C2)c1OC (stereo not drawn)	inactive: -4.76%
CC(C)c1nnc(NC(=O)c2nc(S(=O)(=O)Cc3ccccc3)ncc2Cl)s1	inactive: -0.774%
Cc1ccc(C(=O)N2CCOCC2)cc1[N+](=O)[O-]	inactive: 2.65%
Cc1cccc(N(Cc2cc3ccccc3[nH]c2=O)S(C)(=O)=O)c1	inactive: 0.0641%
CC(C)(C)c1ccc(C(=O)Nc2ccc([N+](=O)[O-])cn2)cc1	inactive: 9.07%
Cn1c(SCC(=O)Nc2cccc(S(=O)(=O)NC3=NCCCCC3)c2)nnc1-c1ccncc1	inactive: -9.92%
COc1ccc(C(C)(C)C)cc1NC(=O)CCCn1c(=O)oc2ccccc21	inactive: 21.1%

SMILES	growth rescue (activation)
CCN(c1ccccc1)S(=O)(=O)c1cc(NC(=O)CN2CCN(C)CC2)ccc1Cl	inactive: -8.25%
Cc1sc(NC(=O)COc2ccc(C(C)(C)C)cc2)c(C(=O)OC(C)C)c1C	inactive: -4.89%
O=c1c2ccccc2cnn1Cc1n[nH]c(=S)n1-c1ccccc1Cl	inactive: -2.89%
COc1cccc(-c2nc(C#N)c(N3CCN(C(=O)c4ccco4)CC3)o2)c1	inactive: 22.2%
Cc1ccc(NC(=O)C(C)N2CCCC2)cc1Cl (stereo not drawn)	inactive: -4.09%
Cc1cc(C)n(CC(=O)N2CCCC(N3CCN(c4ccccc4C)CC3)C2)n1 (stereo not drawn)	inactive: -19.5%
O=C(NCCS(=O)c1ccc(Cl)cc1)c1cccc(Cl)c1 (stereo not drawn)	inactive: 6.18%
Cc1ccnc(NC(=O)CCC(=O)N(CC(=O)NC(C)(C)C)c2ccc(F)c(Cl)c2)c1	inactive: -3.54%
O=C(CCOc1ccccc1)NNC(=O)c1ccccc1	inactive: -1.25%
O=c1nc2ccc(Cl)cn2c2ccc(S(=O)(=O)N3CCCCC3)cc12	inactive: 9.51%
CSc1ccc(CN(C)C(=O)C23CC4CC(CC(Cl)(C4)C2)C3)cc1	inactive: 7.14%
Cc1ccc(S(=O)(=O)NCC(=O)N(CC(=O)NCC2CCCO2)Cc2ccc(Cl)cc2)cc1 (stereo not drawn)	inactive: 14%
CCOC(=O)Cc1[nH]nc2c1C(c1ccsc1)C(C#N)=C(N)O2 (stereo not drawn)	inactive: 7.36%
O=C(COc1ccc(Cl)cc1[N+](=O)[O-])N1CCCCC1	inactive: 5.48%
O=C(COC(=O)c1n[nH]c(=O)c2ccccc12)Nc1ccccc1F	inactive: 17.4%
O=Cc1c(N2CCC3(CC2)OCCO3)nc2ccccn2c1=O	inactive: 1.38%
Cc1c(C(=O)N2CCOCC2)sc(NC(=O)C(C)C)c1C#N	inactive: -0.755%
Cc1c(C(=O)O)oc2c1C(=O)CC(C)(C)C2	inactive: 6.29%
CC(Cc1ccco1)NC(=O)c1cccc(S(=O)(=O)N(C)C)c1 (stereo not drawn)	inactive: -1.84%
Cc1ccc(/C=N/NC(=S)NC2CCCCC2)o1	inactive: 20.2%
CCN(Cc1cccc(F)c1)C(=O)c1ccc2ccccc2n1	inactive: 17.3%
COc1ccc(Nc2nc(C)nc3c2oc2ccccc23)cc1	inactive: 26.4%

SMILES	growth rescue (activation)
CS(=O)(=O)c1ccc(Cl)c(NC(=O)COC(=O)c2ccc(S(=O)(=O)N3CCCC3)cc2)c1	inactive: 8.52%
O=C1CN(c2ccccc2)C(=S)N1C(=O)c1ccccc1	inactive: 21.8%
Cc1ccc(CSCCNS(=O)(=O)c2ccc(C)cc2)cc1	inactive: 25.1%
Cc1ccc(NC(=O)CSc2cn[nH]n2)cc1	inactive: 5.71%
CC(=O)Nc1ccc(OC(=O)c2cc3cc(Br)ccc3oc2=O)cc1	inactive: 8.4%
CCOc1ccc(NC(=O)C2CCCN2C(=O)Oc2ccccc2)cc1 (stereo not drawn)	inactive: -2.8%
O=C(O)c1ccc(N/N=C/C2=C(N3CCOCC3)C(=C\c3ccccc3)/CC2)cc1	inactive: 19.3%
COc1ccc(C(=O)COC(=O)C2CCN(c3ccc(C(F)(F)F)cn3)CC2)c(OC)c1	inactive: 27.9%
CC(C)CCN(CC(=O)NC(C)(C)C)C(=O)C(=O)Nc1ccc2c(c1)OCCO2	inactive: -5.96%
Cc1nn(CCC#N)c(N)c1C1(O)C(=O)Nc2c(Cl)cc(Cl)cc21 (stereo not drawn)	inactive: 1.24%
O=C(COC(=O)c1cccc(NS(=O)(=O)c2ccc(F)c(F)c2)c1)NC(=O)NC1CCCCC1	inactive: -12.2%
CCN1CC(CN(C)Cc2nc(-c3ccc(OC)c4ccccc34)oc2C)CC1=O (stereo not drawn)	inactive: 14.6%
O=C(NCC1CCCO1)C1CCCN1C(=O)Nc1ccccc1[N+](=O)[O-] (stereo not drawn)	inactive: 11.5%
CN(C(=O)CSc1nnc(Cc2ccccc2F)n1N)C1CCCCC1	inactive: 3.23%
CCc1cccc(CC)c1NC(=S)NCC(c1cccnc1)N(C)C (stereo not drawn)	inactive: -11.9%
CC(=O)c1cccc(NC(=O)c2ccccc2OCc2ccc(F)cc2)c1	inactive: 2.16%
CCCn1nc(NC(=O)C2CCCO2)c2cc3ccc(C)cc3nc21 (stereo not drawn)	inactive: 4.03%
O=C(NCc1cccc(Cl)c1)NCc1cccc(Cl)c1	inactive: -1.79%
O=C(NCCc1ccccc1)c1ccccc1NC(=O)C1CCCO1 (stereo not drawn)	inactive: -1.4%
O=C(Cc1cccs1)NNC(=S)NCc1ccco1	inactive: 7.39%

Source: PubChem BioAssay AID1347073 (National Center for Advancing Translational Sciences (NCATS), 2019)
